Measured values taken from PubChem BioAssay AID1508623 (National Center for Advancing Translational Sciences (NCATS), 2021).
Screen size: about 48,000 compounds; about 450 (0.94%) were called active. Not shown: some 19% with an inconclusive outcome. Calls follow the shape of the dose curve; as a rule, active = well fitted inhibition curve with a large enough effect; inconclusive = small, poorly fitted or top-dose-only effect; inactive = no such curve, though single readings can be large or run the other way. The list shows a part of the results.

Test: Primary qHTS for Identification of Small Molecule Inhibitors of Huntingtin Promoter Activity; also: nearly all actives have a fitted effect of over 50% in size
Conditions: HEK293 HTT promoter firefly luciferase reporter (activity 0% = vehicle and -100% = no light), 24 h; series mostly up to 57.5 µM; activity change, negative = inhibition: at the top concentration
Summary of the method: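 Luminescence was read after Dual-Glo reagent and a 10 min room-temperature incubation. Values were normalized to vehicle (0% activity) and zero RLU (-100% activity). Reporter HEK293 cells had been exposed to compounds (up to 57.5 uM final) for 24 h.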

Activity change, negative = inhibition, inactive:
COc1ccc(CN(C(=O)Nc2cccc(OC)c2)C2CCN(C(C)=O)CC2)cc1 -19.2%
Cc1ccc(NC(=O)CN2C(=O)CC(c3ccc(F)cc3)=Nc3ccccc32)cc1F -9.06%
COc1ccc(C2c3c(oc4ccc(Cl)cc4c3=O)C(=O)N2CCCN(C)C)cc1OC (stereo not drawn) 10.9%
COc1cccc(CNC(=O)CN2C(=O)N(c3c(C)cccc3C)S(=O)(=O)c3ccccc32)c1OC -19.6%
CC[N+](C)(CC)CCOC(=O)C(O)(c1ccccc1)C1CCCCC1 (stereo not drawn) 12.5%
CO[C@H]1C[C@@H]2CC[C@@H](C)[C@@](O)(O2)C(=O)C(=O)N2CCCC[C@@H]2C(=O)O[C@H]([C@@H](C)C[C@@H]2CC[C@H](O)[C@H](OC)C2)CC(=O)[C@H](C)C=C(C)[C@@H](O)[C@@H](OC)C(=O)[C@H](C)C[C@H](C)C=CC=CC=C1C -5.04%
CCOc1ccc(NC(=O)Cn2nnc(C(=O)NCc3cccs3)c2N)cc1 -4.18%
COc1ccc(/C=C\c2onc(C)c2S(=O)(=O)N2CCC(C(=O)Nc3cccc(C)c3C)CC2)cc1 -13%
Cc1ccc(-n2c(=O)c3c(cnn3C)n(CC(=O)Nc3cc(C)ccc3C)c2=O)cc1 -2.62%
O=C1c2c(O)cccc2Cc2cccc(O)c21 16.8%
Cc1ccc(C(=O)c2cn(Cc3cccc(F)c3)c3nc(C)ccc3c2=O)cc1 -20.4%
COc1ccc(C(=O)NCc2ccc3c(c2)CCN3C(=O)c2cccc(C)c2)cc1OC -14.2%
Cc1oc2ncnc(N3CCOCC3)c2c1C(=O)NCc1ccccc1 -7.64%
COc1ccc(CCNC(=O)CSc2nc3ccccc3nc2Cc2ccc(Cl)cc2)cc1OC -8.13%
Cc1nc2sccn2c(=O)c1S(=O)(=O)N1CCN(c2ccc(F)cc2)CC1 -9.93%
Cc1cccc(NS(=O)(=O)c2ccc(Cl)c(C(=O)Nc3ccccc3C)c2)c1 -32.6%
CCCN(Cc1cccs1)C(=O)Nc1ccc(Br)c(C)c1 28%
CCCCOc1ccccc1NC(=O)Cn1c(-c2cncs2)nc2ccccc21 -16%
O=C(NC1CC(=O)N(c2ccccc2)C1)c1cc2ccccc2o1 (stereo not drawn) -23%
Cc1oc(-c2ccccc2)nc1CNS(=O)(=O)c1ccc(Cl)cc1 -3.13%
CC=C(C)C(=O)O[C@H]1C(C)=C[C@]23C(=O)[C@@H](C=C(CO)[C@@H](O)[C@]12O)[C@H]1[C@@H](C[C@H]3C)C1(C)C -10.5%
CN1CCN(Cc2c(O)ccc3cc(-c4ccccc4)c(=O)oc23)CC1 -4.81%
CCOc1ccc(-c2cc(C(=O)NCc3ccc(OC)cc3)c3c(-c4ccc(F)cc4)[nH]nc3n2)cc1 -12.4%
Cc1cccc(-c2nc(N3CCN(c4ccc(F)cc4)CC3)c3ccccc3n2)c1 -0.7%
COc1ccc(Nc2nc3c(S(=O)(=O)c4ccccc4)nnn3c3ccc(Cl)cc23)cc1OC -16.9%
CCOC(=O)c1cccc(NC(=O)c2cc3c(=O)n(Cc4cccnc4)ccc3nc2C)c1 -6.65%
CCCCCn1c(=O)[nH]c2cc(C(=O)N3CCN(c4ccccc4F)CC3)ccc2c1=O -27.2%
CCOC(=O)c1[nH]c2ccccc2c1NC(=O)c1ccc(OCC)cc1 -4.12%
Cc1ccc(-n2ncc3c(NCCCn4ccnc4)ncnc32)cc1 -22.3%
Cc1ccc(NC(=O)c2cc(-c3cccs3)on2)cc1C 63.3%
CCN1CCN(CCCNC(=O)c2cnn(-c3ccc(C)cc3)c2C2CCN(C(=O)OC(C)(C)C)CC2)CC1 -1.98%
COc1nccc(-c2c(-c3ccc(F)cc3)ncn2C2CCC(O)CC2)n1 (stereo not drawn) -1.63%
COc1cccc(-n2c(SCC(=O)Nc3ccc(F)cc3F)nc3c([nH]c4ccccc43)c2=O)c1 -39.6%
COc1ccccc1CNC(=O)c1cccc(NC(=O)N2CCSc3ncccc32)c1 -18.1%
COc1cc(-c2nc3cccc(C)n3c2Nc2ccc3c(c2)OCCO3)ccc1O 1.95%
CCCCOC(=O)c1ccc(NC(=O)CSc2nc3c(c(=O)[nH]2)CCC3)cc1 -29%
COc1ccc(CCNC(=O)c2ccc(Cn3c(=O)c4ccccc4n(Cc4ccccc4Cl)c3=O)cc2)cc1OC -9.12%
CCOc1cc(-c2ccc(OC(=O)c3ccc(Cl)cc3)c(OC)c2)cc(=O)c2c(C)oc(C)c12 11.6%
Cc1c(C(=O)NCc2ccc(F)cc2)sc2nc(-c3ccccc3)cn12 -18.6%
Cc1nnc(N2C(=O)c3oc4ccccc4c(=O)c3C2c2ccc(F)cc2)s1 (stereo not drawn) 0.556%
Oc1c(C(c2ccc(Cl)cc2)N2CCCC2)sc2nc(-c3ccco3)nn12 (stereo not drawn) 24.2%
CCOc1ccccc1C(=O)NCC(c1ccc(N(C)C)cc1)N1CCc2ccccc21 (stereo not drawn) -28.6%
Cc1ccc(Cl)cc1NC(=O)c1cc(-c2ccc3c(c2)OCCO3)on1 11.9%
Cc1cccc(NC(=O)CN(C)S(=O)(=O)c2cnc[nH]2)c1C -2.79%
Cc1cc(C)c(NC(=O)CN2C(=O)CCn3nc(-c4cccn4C)cc32)c(C)c1 -23.6%
Cc1ccc(-n2ncc(C(=O)NCCCN3CCN(C)CC3)c2C2CCN(C(=O)OC(C)(C)C)CC2)cc1 1.74%
CCCCNc1cc(N2CCN(C3CCCCC3)CC2)c2noc3c2c1C(=O)c1ccccc1-3 4.18%
CCCCC(=O)N1CCN(c2nc3c(C)c(C)ccc3s2)CC1 -19.1%
Cc1cc(C)c(NC(=O)CSc2cn(CC(=O)N3CCOCC3)c3ccccc23)c(C)c1 -15.4%
COc1cccc(Cn2c(=O)n(CC3CCC(C(=O)N4CCOCC4)CC3)c(=O)c3sccc32)c1 (stereo not drawn) -24.3%
Cc1oc2ncn(CC(C)C)c(=O)c2c1C(=O)NCCCN1CCCCC1C (stereo not drawn) 0%
Cc1cc(C)c2c(n1)SCC(=O)N2CC(=O)Nc1cccc(C)c1C -25.2%
CCOc1ccc(NC(=O)c2oc3ccccc3c2NC(=O)Cc2cccs2)cc1 1.54%
CCN1CCN(C(=O)c2ccc3c(c2)N(Cc2ccc(Cl)cc2)C(=O)c2ccccc2S3=O)CC1 (stereo not drawn) -20%
CCc1ccc(Cn2c(CNS(=O)(=O)c3ccc4c(c3)CCCC4)nc3cccnc32)cc1 -6.22%
CCc1ccc2c(c1)c(=O)c(C(=O)c1ccccc1)cn2CC(=O)Nc1ccc(C)c(Cl)c1 -10%
CCc1ccc2c(c1)c(=O)c(C(=O)c1ccc(C)cc1)cn2CC(=O)Nc1ccccc1C -17.7%
COc1ccc(-c2nnc(SCC(=O)NCCc3ccccc3)nc2-c2ccc(OC)cc2)cc1 8.81%
